SMILES strings stand for the structures. The whole screen tested about 310,000 compounds, of which about 2,200 (0.71%) showed an effect of 50% or more. Effects have a minus sign here. The list shows a part of the results.

In this assay the target is human ether-à-go-go-related gene (hERG) potassium channel (human, UniProt Q12809). In words: primary screen, population patch clamp on CHO cells stably expressing hERG.
Sequence of human ether-à-go-go-related gene (hERG) potassium channel (Q12809 whole entry, looked up): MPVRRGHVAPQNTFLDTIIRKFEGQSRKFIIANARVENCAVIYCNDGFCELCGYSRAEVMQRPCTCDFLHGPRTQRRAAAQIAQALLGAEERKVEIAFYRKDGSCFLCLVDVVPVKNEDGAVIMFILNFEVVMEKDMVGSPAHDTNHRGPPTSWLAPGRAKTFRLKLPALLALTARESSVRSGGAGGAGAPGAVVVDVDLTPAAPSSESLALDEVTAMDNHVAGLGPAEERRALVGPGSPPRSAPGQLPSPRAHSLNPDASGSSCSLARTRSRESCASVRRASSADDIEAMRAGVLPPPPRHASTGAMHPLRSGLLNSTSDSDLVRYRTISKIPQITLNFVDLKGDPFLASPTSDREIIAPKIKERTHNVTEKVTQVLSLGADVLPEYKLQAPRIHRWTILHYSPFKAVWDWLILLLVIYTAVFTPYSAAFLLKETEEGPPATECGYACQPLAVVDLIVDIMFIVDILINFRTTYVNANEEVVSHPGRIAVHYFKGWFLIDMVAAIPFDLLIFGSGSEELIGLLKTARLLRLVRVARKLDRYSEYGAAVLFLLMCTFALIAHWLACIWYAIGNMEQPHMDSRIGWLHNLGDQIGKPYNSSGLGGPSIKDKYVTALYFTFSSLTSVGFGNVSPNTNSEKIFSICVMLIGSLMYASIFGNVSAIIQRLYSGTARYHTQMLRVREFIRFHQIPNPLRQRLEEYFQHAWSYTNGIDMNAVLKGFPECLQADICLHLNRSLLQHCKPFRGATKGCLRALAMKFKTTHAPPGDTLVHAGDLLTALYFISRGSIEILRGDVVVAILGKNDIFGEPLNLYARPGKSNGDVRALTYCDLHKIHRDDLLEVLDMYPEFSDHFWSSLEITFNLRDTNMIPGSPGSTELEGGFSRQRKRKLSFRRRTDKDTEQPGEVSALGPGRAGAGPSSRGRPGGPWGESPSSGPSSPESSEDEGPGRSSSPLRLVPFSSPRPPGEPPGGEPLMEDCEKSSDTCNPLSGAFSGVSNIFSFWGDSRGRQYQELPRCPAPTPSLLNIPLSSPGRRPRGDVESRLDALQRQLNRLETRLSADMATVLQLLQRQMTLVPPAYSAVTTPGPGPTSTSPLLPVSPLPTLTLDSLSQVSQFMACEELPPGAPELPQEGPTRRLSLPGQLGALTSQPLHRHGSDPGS
`COC(=O)[C@@]12CCCCN1[C@H](c1ccc(-c3ccc(OC)cc3)cc1)[C@H]1C(=O)N(C)C(=O)[C@H]12.O=C(O)C(F)(F)F`: the “hERG current change (%, negative = inhibition) at 1uM” value came out at 12.5%.

For the compound `O=C(Nc1cccc2ccccc12)c1ccc([N+](=O)[O-])cc1`, the “hERG current change (%, negative = inhibition) at 1uM” value was -0.953%.

For `Cn1cccc1Cc1nnc(SCC(=O)Nc2nc3ccccc3s2)n1CCc1ccccc1`, the “hERG current change (%, negative = inhibition) at 1uM” value is recorded as 13.8%.

As to `Cc1cc(C)cc(N=C(NO)c2cccc([N+](=O)[O-])c2)c1`, the “hERG current change (%, negative = inhibition) at 1uM” value is on record as 5.79%.

As for `CC(C)c1ccc(NC(=O)c2ccc3snnc3c2)cc1`, the “hERG current change (%, negative = inhibition) at 1uM” value was -1.54%.

Consider `CCN(CC)CCn1c2c(c(SCC(=O)Nc3nc4ccccc4s3)nc1=O)CCCC2`, for which the “hERG current change (%, negative = inhibition) at 1uM” value is -10.4%.

With `O=C(c1cccc([N+](=O)[O-])c1)N1CCN(S(=O)(=O)N2CCCCC2)CC1`, the “hERG current change (%, negative = inhibition) at 1uM” value turned out to be 3.45%.

Take `CS(=O)(=O)Nc1cccc(-c2cn3ccccc3n2)c1`: the “hERG current change (%, negative = inhibition) at 1uM” value is reported as 5.39%.

`Cc1ccc(C2CC(C(F)(F)F)n3nc(C(=O)NCc4ccco4)cc3N2)cc1` (centres unmarked): the “hERG current change (%, negative = inhibition) at 1uM” value worked out at 22.4%.

As to `COC(=O)c1c(C)[nH]c(C(=O)OCC(=O)NCC(C)C)c1C`, the “hERG current change (%, negative = inhibition) at 1uM” value worked out at 14.4%.

`Brc1ccc(-c2csc(Nc3nc(-c4ccc(Br)cc4)cs3)n2)cc1`: the “hERG current change (%, negative = inhibition) at 1uM” value is 13.4%.

Regarding `Cc1cnc(NC(=O)CSc2ccccc2)s1`, the “hERG current change (%, negative = inhibition) at 1uM” value is recorded as -2.02%.

`C=CCn1c(CNc2ccc(C)cc2)nnc1SCC(=O)N/N=C/c1ccc(O)cc1`: the “hERG current change (%, negative = inhibition) at 1uM” value is given as -3.22%.

As for `COc1cccc(Oc2coc3c(CN4CCOCC4)c(O)ccc3c2=O)c1`, the “hERG current change (%, negative = inhibition) at 1uM” value came to 0.344%.

As for `Cc1oc(-c2ccccc2F)nc1CS(=O)(=O)CC(=O)N1CCN(Cc2ccccc2)CC1`, the “hERG current change (%, negative = inhibition) at 1uM” value is listed as 9.36%.

With `O=C(Nc1ccc2c(c1)C(=O)N(c1ccccc1)C2=O)C1CCCO1` (centres unmarked), the “hERG current change (%, negative = inhibition) at 1uM” value is on record as 1.3%.

Turning to `CCO[C@@H]1OC(C(=O)Nc2ccccc2)=C[C@H](C2CC2)[C@H]1CCCO`, the “hERG current change (%, negative = inhibition) at 1uM” value is given as 9.44%.

Consider `Cc1nc2ccc(NC(=O)CCC3CCCC3)cc2s1`, for which the “hERG current change (%, negative = inhibition) at 1uM” value amounted to 9.44%.

Consider `O=C(Cc1ccccc1)Nc1ccc2[nH]ncc2c1`, for which the “hERG current change (%, negative = inhibition) at 1uM” value came to 18.4%.

In the case of `Cc1cccc(OCC(=O)NC2CC(C)(C)NC(C)(C)C2)c1`, the “hERG current change (%, negative = inhibition) at 1uM” value was found to be 7.88%.

In the case of `Cc1ccc(NC(=O)CN2C(=O)S/C(=C\c3cccn3C)C2=O)cc1`, the “hERG current change (%, negative = inhibition) at 1uM” value is recorded as 12.5%.

`COc1ccc(-c2ccc3c(N)c(C(=O)c4cccc(OC)c4)sc3n2)cc1`: the “hERG current change (%, negative = inhibition) at 1uM” value is on record as -0.964%.

For `COc1cccc(-c2nc(CS(=O)(=O)CC(=O)NCc3ccc4c(c3)OCO4)c(C)o2)c1`, the “hERG current change (%, negative = inhibition) at 1uM” value is given as -3.34%.

The values above are taken from publication PMC4336329 (PLoS ONE, 2015).
